Measurements published in article PMC9911399, “Two distinct binding modes provide the RNA-binding protein RbFox with extraordinary sequence specificity”.
Positions count from the first letter of the chain named. Some of the results follow.

B1: GCUUCUU (DNA:RNA)
RNA: GGGAGACCGGAAUUCAGAUUGUCCGCUUCUUUUAAAUCCCGUCGUAGCCACCA
DNA 1: CAATCTGAATTCCGGTCTCCC
DNA 2: TGGTGGCTACGACGGGATT
B2: GGUUCUA (DNA:RNA)
RNA: B1 RNA with C26G, U31A
DNA 1: CAATCTGAATTCCGGTCTCCC
DNA 2: TGGTGGCTACGACGGGATT
B3: UUGCUCG (DNA:RNA)
RNA: GGGAGACCGGAAUUCAGAUUGUCCUUGCUCGUUAAAUCCCGUCGUAGCCACCA
DNA 1: CAATCTGAATTCCGGTCTCCC
DNA 2: TGGTGGCTACGACGGGATT
B4: ACAAAGC (DNA:RNA)
RNA: B1 RNA with G25A, U27A, U28A, C29A, U30G, U31C
DNA 1: CAATCTGAATTCCGGTCTCCC
DNA 2: TGGTGGCTACGACGGGATT
B5: UACGAUA (DNA:RNA)
RNA: B1 RNA with G25U, C26A, U27C, U28G, C29A, U31A
DNA 1: CAATCTGAATTCCGGTCTCCC
DNA 2: TGGTGGCTACGACGGGATT
B6: CUGUGAU (DNA:RNA)
RNA: B1 RNA with G25C, C26U, U27G, C29G, U30A
DNA 1: CAATCTGAATTCCGGTCTCCC
DNA 2: TGGTGGCTACGACGGGATT
B7: CGAAUAC (DNA:RNA)
RNA: B3 RNA with U25C, U26G, G27A, C28A, C30A, G31C
DNA 1: CAATCTGAATTCCGGTCTCCC
DNA 2: TGGTGGCTACGACGGGATT
B8: ACGAGGA (DNA:RNA)
RNA: B1 RNA with G25A, U27G, U28A, C29G, U30G, U31A
DNA 1: CAATCTGAATTCCGGTCTCCC
DNA 2: TGGTGGCTACGACGGGATT
B9: AAUCGUU (DNA:RNA)
RNA: B1 RNA with G25A, C26A, U28C, C29G
DNA 1: CAATCTGAATTCCGGTCTCCC
DNA 2: TGGTGGCTACGACGGGATT
B10: CAGUGGC (DNA:RNA)
RNA: B1 RNA with G25C, C26A, U27G, C29G, U30G, U31C
DNA 1: CAATCTGAATTCCGGTCTCCC
DNA 2: TGGTGGCTACGACGGGATT
B11: UCUCGUC (DNA:RNA)
RNA: B1 RNA with G25U, U28C, C29G, U31C
DNA 1: CAATCTGAATTCCGGTCTCCC
DNA 2: TGGTGGCTACGACGGGATT
B12: AAUGUCG (DNA:RNA)
RNA: B3 RNA with U25A, U26A, G27U, C28G
DNA 1: CAATCTGAATTCCGGTCTCCC
DNA 2: TGGTGGCTACGACGGGATT
B13: GUCAAUG (DNA:RNA)
RNA: B1 RNA with C26U, U27C, U28A, C29A, U31G
DNA 1: CAATCTGAATTCCGGTCTCCC
DNA 2: TGGTGGCTACGACGGGATT
B14: GCCUGAC (DNA:RNA)
RNA: B1 RNA with U27C, C29G, U30A, U31C
DNA 1: CAATCTGAATTCCGGTCTCCC
DNA 2: TGGTGGCTACGACGGGATT
B15: GGGACUA (DNA:RNA)
RNA: B1 RNA with C26G, U27G, U28A, U31A
DNA 1: CAATCTGAATTCCGGTCTCCC
DNA 2: TGGTGGCTACGACGGGATT
B16: UUUGUGU (DNA:RNA)
RNA: B3 RNA with G27U, C28G, C30G, G31U
DNA 1: CAATCTGAATTCCGGTCTCCC
DNA 2: TGGTGGCTACGACGGGATT
B17: GCUAGAA (DNA:RNA)
RNA: B1 RNA with U28A, C29G, U30A, U31A
DNA 1: CAATCTGAATTCCGGTCTCCC
DNA 2: TGGTGGCTACGACGGGATT
B18: UGUACUU (DNA:RNA)
RNA: B1 RNA with G25U, C26G, U28A
DNA 1: CAATCTGAATTCCGGTCTCCC
DNA 2: TGGTGGCTACGACGGGATT
B19: CUCUAAG (DNA:RNA)
RNA: B3 RNA with U25C, G27C, C28U, U29A, C30A
DNA 1: CAATCTGAATTCCGGTCTCCC
DNA 2: TGGTGGCTACGACGGGATT
B20: UCAGGUC (DNA:RNA)
RNA: B1 RNA with G25U, U27A, U28G, C29G, U31C
DNA 1: CAATCTGAATTCCGGTCTCCC
DNA 2: TGGTGGCTACGACGGGATT
B21: UGCAGUG (DNA:RNA)
RNA: B3 RNA with U26G, G27C, C28A, U29G, C30U
DNA 1: CAATCTGAATTCCGGTCTCCC
DNA 2: TGGTGGCTACGACGGGATT
B22: CUCGUUU (DNA:RNA)
RNA: B1 RNA with G25C, C26U, U27C, U28G, C29U
DNA 1: CAATCTGAATTCCGGTCTCCC
DNA 2: TGGTGGCTACGACGGGATT
B23: AGGUCAA (DNA:RNA)
RNA: B1 RNA with G25A, C26G, U27G, U30A, U31A
DNA 1: CAATCTGAATTCCGGTCTCCC
DNA 2: TGGTGGCTACGACGGGATT
B24: UCAGGCG (DNA:RNA)
RNA: B3 RNA with U26C, G27A, C28G, U29G
DNA 1: CAATCTGAATTCCGGTCTCCC
DNA 2: TGGTGGCTACGACGGGATT
B25: GUGCAUU (DNA:RNA)
RNA: B1 RNA with C26U, U27G, U28C, C29A
DNA 1: CAATCTGAATTCCGGTCTCCC
DNA 2: TGGTGGCTACGACGGGATT
B26: GGGGAGU (DNA:RNA)
RNA: B1 RNA with C26G, U27G, U28G, C29A, U30G
DNA 1: CAATCTGAATTCCGGTCTCCC
DNA 2: TGGTGGCTACGACGGGATT
B27: GAUUUCC (DNA:RNA)
RNA: B1 RNA with C26A, C29U, U30C, U31C
DNA 1: CAATCTGAATTCCGGTCTCCC
DNA 2: TGGTGGCTACGACGGGATT
B28: CUGGUGC (DNA:RNA)
RNA: B3 RNA with U25C, C28G, C30G, G31C
DNA 1: CAATCTGAATTCCGGTCTCCC
DNA 2: TGGTGGCTACGACGGGATT
B29: UGGUGAA (DNA:RNA)
RNA: B3 RNA with U26G, C28U, U29G, C30A, G31A
DNA 1: CAATCTGAATTCCGGTCTCCC
DNA 2: TGGTGGCTACGACGGGATT
B30: GGGCGCU (DNA:RNA)
RNA: B3 RNA with U25G, U26G, U29G, G31U
DNA 1: CAATCTGAATTCCGGTCTCCC
DNA 2: TGGTGGCTACGACGGGATT
B31: UGGCAGA (DNA:RNA)
RNA: B3 RNA with U26G, U29A, C30G, G31A
DNA 1: CAATCTGAATTCCGGTCTCCC
DNA 2: TGGTGGCTACGACGGGATT

These binders were tested against T1, RBFOX1 RRM (Homo sapiens, UniProt Q9NWB1 109-208) (assay: EMSA; HiTS-Eq, 1 nM pool, 10 min; buffer printed only for the single-RNA assays: 10 mM Tris pH 7.5, 150 mM NaCl, 3.4 mM EDTA, 0.001% NP-40, 30 C). Settings: tags: His6 N-terminal (pET28a); label: 5' 32P.
T1 sequence: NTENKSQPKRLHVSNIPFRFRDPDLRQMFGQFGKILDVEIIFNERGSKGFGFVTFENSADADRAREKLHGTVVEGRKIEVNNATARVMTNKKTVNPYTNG
Outline: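 Relative association constants, normalised to the cognate motif, were derived by comparing read counts of each RNA species with those of the control reaction. The RNA sequenced was the free fraction, separated by 8% native PAGE after a 10 min equilibration in 50 µL of 1 nM 5′-radiolabelled RNA (7 randomized nucleotides) with increasing concentrations of purified wild-type or mutant RbFox RRM.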

| Binder | binding signal |
| --- | --- |
| B1 | 0.015 KA relative to UGCAUGU |
| B2 | 0.0124 KA relative to UGCAUGU |
| B3 | 0.0477 KA relative to UGCAUGU |
| B4 | 0.000899 KA relative to UGCAUGU |
| B5 | 0.0048 KA relative to UGCAUGU |
| B6 | 0.0141 KA relative to UGCAUGU |
| B7 | 0.00404 KA relative to UGCAUGU |
| B8 | 0.00366 KA relative to UGCAUGU |
| B9 | 0.00738 KA relative to UGCAUGU |
| B10 | 0.00648 KA relative to UGCAUGU |
| B11 | 0.0109 KA relative to UGCAUGU |
| B12 | 0.0133 KA relative to UGCAUGU |
| B13 | 0.0103 KA relative to UGCAUGU |
| B14 | 0.0331 KA relative to UGCAUGU |
| B15 | 0.0294 KA relative to UGCAUGU |
| B16 | 0.0289 KA relative to UGCAUGU |

| Binder | binding signal |
| --- | --- |
| B17 | 0.0212 KA relative to UGCAUGU |
| B18 | 0.0109 KA relative to UGCAUGU |
| B19 | 0.00696 KA relative to UGCAUGU |
| B20 | 0.0155 KA relative to UGCAUGU |
| B21 | 0.0254 KA relative to UGCAUGU |
| B22 | 0.0104 KA relative to UGCAUGU |
| B23 | 0.0074 KA relative to UGCAUGU |
| B24 | 0.0144 KA relative to UGCAUGU |
| B25 | 0.0263 KA relative to UGCAUGU |
| B26 | 0.0316 KA relative to UGCAUGU |
| B27 | 0.0219 KA relative to UGCAUGU |
| B28 | 0.0264 KA relative to UGCAUGU |
| B29 | 0.014 KA relative to UGCAUGU |
| B30 | 0.0216 KA relative to UGCAUGU |
| B31 | 0.0265 KA relative to UGCAUGU |
